Measurements published in the supplement of paper PMC11876631.
Where a chain is given by its changes, count along the chain named. In names and notes the source's numbering stands. ± gives the standard deviation of the averaged measurements. Laboratory Escherichia coli strains with one amino-acid change in an essential protein, pooled on minimal glucose agar with carbenicillin or gentamicin at twice the control MIC (plus kanamycin and chloramphenicol for the plasmids), 48 h. Fold change of barcode share against drug-free plates; higher = less susceptible. Active = above 20 in both replicates (the paper's putatively resistant). '<' = one read or none on drug, '>' = one read or none on a drug-free plate. Shares are relative, so most strains fall below 1 when a few take over. Listed are strains with at least 15 reads on both drug-free plates, and hits; most hits rest on fewer reference reads. Replicate rank correlation about 0.5. Edits are read from barcodes.

B1: metE V481P (protein)
chain: MTILNHTLGFPRVGLRRELKKAQESYWAGNSTREELLAVGRELRARHWDQQKQAGIDLLPVGDFAWYDHVLTTSLLLGNVPARHQNKDGSVDIDTLFRIGRGRAPTGEPAAAAEMTKWFNTNYHYMVPEFVKGQQFKLTWTQLLDEVDEALALGHKVKPVLLGPVTWLWLGKVKGEQFDRLSLLNDILPVYQQVLAELAKRGIEWVQIDEPALVLELPQAWLDAYKPAYDALQGQVKLLLTTYFEGVTPNLDTITALPVQGLHVDLVHGKDDVAELHKRLPSDWLLSAGLINGRNVWRADLTEKYAQIKDIVGKRDLWVASSCSLLHSPIDLSVETRLDAEVKSWFAFALQKCHELALLRDALNSGDTAALAEWSAPIQARRHSTRVHNPAVEKRLAAITAQDSQRANVYEVRAEAQRARFKLPAWPTTTIGSFPQTTEIRTLRLDFKKGNLDANNYRTGIAEHIKQAIVEQERLGLDVLPHGEAERNDMVEYFGEHLDGFVFTQNGWVQSYGSRCVKPPIVIGDISRPAPITVEWAKYAQSLTDKPVKGMLTGPVTILCWSFPREDVSRETIAKQIALALRDEVADLEAAGIGIIQIDEPALREGLPLRRSDWDAYLQWGVEAFRINAAVAKDDTQIHTHMCYCEFNDIMDSIAALDADVITIETSRSDMELLESFEEFDYPNEIGPGVYDIHSPNVPSVEWIEALLKKAAKRIPAERLWVNPDCGLKTRGWPETRAALANMVQAAQNLRRG
B2: metK L93A (protein)
chain: MAKHLFTSESVSEGHPDKIADQISDAVLDAILEQDPKARVACETYVKTGMVLVGGEITTSAWVDIEEITRNTVREIGYVHSDMGFDANSCAVASAIGKQSPDINQGVDRADPLEQGAGDQGLMFGYATNETDVLMPAPITYAHRLVQRQAEVRKNGTLPWLRPDAKSQVTFQYDDGKIVGIDAVVLSTQHSEEIDQKSLQEAVMEEIIKPILPAEWLTSATKFFINPTGRFVIGGPMGDCGLTGRKIIVDTYGGMARHGGGAFSGKDPSKVDRSAAYAARYVAKNIVAAGLADRCEIQVSYAIGVAEPTSIMVETFGTEKVPSEQLTLLVREFFDLRPYGLIQMLDLLHPIYKETAAYGHFGREHFPWEKTDKAQLLRDAAGLK
B3: metK V330P (protein)
chain: B2 chain with A93L, V330P
B4: metK V330W (protein)
chain: B2 chain with A93L, V330W
B5: metK V330Q (protein)
chain: B2 chain with A93L, V330Q
B6: metK L93Q (protein)
chain: B2 chain with A93Q
B7: metK L28P (protein)
chain: B2 chain with L28P, A93L
B8: metK V330A (protein)
chain: B2 chain with A93L, V330A
B9: metK L186A (protein)
chain: B2 chain with A93L, L186A
B10: metK L28A (protein)
chain: B2 chain with L28A, A93L
B11: metK L93P (protein)
chain: B2 chain with A93P
B12: metK L93W (protein)
chain: B2 chain with A93W

Each protein was assayed against Escherichia coli (laboratory strain) (assay: barcode share on antibiotic plates over drug-free plates; higher = less susceptible). Conditions: antibiotic: carbenicillin; 2× MIC (3.1 µg/mL).
Procedure: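 A pool of E. coli strains, each edited to carry one amino-acid change in an essential protein, was grown for 48 h on minimal glucose agar with or without antibiotic; strain barcodes were sequenced; mean of two replicates.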

Protein	fold change of barcode share
B1	0.635 ± 0.35
B2	0.237 ± 0.038
B3	0.219 ± 0.09
B4	0.191 ± 0.068
B5	0.219 ± 0.036
B6	0.383 ± 0.013
B7	0.154 ± 0.049
B8	0.318 ± 0.2
B9	0.319 ± 0.016
B10	0.291 ± 0.13
B11	0.548 ± 0.075
B12	0.452 ± 0.083

Same assay, conditions: antibiotic: gentamicin; 2× MIC (MIC 0.45 µg/mL)

Protein	fold change of barcode share
B1	0.0406 ± 0.048
B2	0.006369 ± 4.1e-05
B4	< 0.00921
B5	< 0.0122
B6	< 0.00366
B8	0.0186 ± 0.0096
B9	< 0.00462
B10	< 0.00933
B11	0.00851 ± 0.0064
B12	0.00639 ± 0.0048
